Some of the results follow.
These compounds were tested on T1, C. trachomatis L2/434/Bu expressing GFP (CTL2-GFP). Details: total inclusion area; 28.5 h, 10 µM; inhibitor.
T1 construct: L2/434/Bu GFP intracellular growth in HeLa cells
Parameters: species or system HeLa; C. trachomatis total inclusion area by high-content imaging, normalised to DMSO
Outline: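 Post-fluorescence-read fixation, DNA staining with Hoechst and high-content imaging; GFP inclusion area and number per well, and nuclei counts, used as proxies for bacterial growth and host viability.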

Row | Compound | % of control remaining
1 | COc1ccc(CN2CCN(c3nccnc3NS(C)(=O)=O)CC2)cc1 [CBK084273] | 70.6879
2 | CNc1nc(C)c(C(=O)N2CCCC(COc3ccc(F)cc3)C2)s1 (centres unmarked) [CBK307234] | 90.49
3 | COc1ccc(S(=O)(=O)N2CCCC(C(=O)Nc3ccc(C(N)=O)cc3)C2)cc1C (centres unmarked) [CBK269163] | 94.5274
4 | O=S(=O)(c1ccc(Br)s1)N1CCC(Cc2ccccc2)CC1 [CBK043580] | 120.223
5 | CCCS(=O)(=O)NC1CCN(c2nc(C(F)(F)F)nc3[nH]cnc23)CC1 [CBK304587] | 68.8363
6 | CN(C)CCN(C)C(=O)c1ccc(-c2ccccc2)nc1N(C)C [CBK106070] | 93.0672
7 | Cc1ccc(C(=O)Nc2ccccc2)cc1S(=O)(=O)N1CCN(C)CC1 [CBK270076] | 67.3493
8 | COc1ccc([C@@]23CC[C@@H](NC(=O)Nc4cccc(SC)c4)C[C@@H]2N(C)CC3)cc1OC [CBK036459T] | 98.3999
9 | O=c1c2ccccc2nc2n1CCN(Cc1ccc(F)c(F)c1)CC2 [CBK284816] | 108.47
10 | CCNC(=O)NC[C@@H]1C=C(C)[C@H](CC(=O)N2CCOCC2)C[C@H]1C(C)C [CBK289051] | 109.09
11 | Cn1c(N2CC[C@H](O)C2)nc2cc(C(=O)NCC3CC3)ccc21 [CBK307164] | 92.0872
12 | CC(C)[C@H](CO)n1c(=O)[nH]c2ncc(-c3cccc(/C=C/C(=O)O)c3)nc21 [CBK065051] | 87.1889
13 | Cc1ccc(S(=O)(=O)NCC(Oc2ccc([N+](=O)[O-])cc2)c2ccccc2)cc1 (centres unmarked) [CBK262208] | 96.2847
14 | COCc1ccc(-c2nccnc2NS(C)(=O)=O)cc1 [CBK049631] | 114.929
15 | O=C(NCCn1cc[nH]c1=O)c1cnc(-c2ccc(Cl)cc2)c(-c2ccc(O)cc2)c1 [CBK036766] | 92.0857
16 | CC(C)c1nc(CC(=O)NCCS(=O)(=O)N2CCc3ccccc32)cs1 [CBK305630] | 69.5254
17 | OCCOc1ccnc2ccccc12 [CBK113395] | 91.9641
18 | CC(NC(=O)/C=C\C(=O)O)c1ccc2c(c1)OCO2 (centres unmarked) [CBK286996] | 94.6012
19 | Cc1cc(NS(=O)(=O)c2cccc3nonc23)n(C)n1 [CBK067247] | 73.9431
20 | COc1cc(OC)c2c(c1)OCC1CON(C)C21 (centres unmarked) [CBK011446] | 95.9069
21 | O=C(NC(=S)Nc1ccc(N2CCN(Cc3ccccc3Cl)CC2)cc1)c1ccco1 [CBK266066] | 86.7044
22 | CC(=O)N1CC[C@H]2NC(=O)CNC(=O)C3(CCCC[C@H]2C1)CCN(C(=O)c1n[nH]c2c1CCC2)CC3 [CBK292012] | 107.324
23 | Cc1ccc(S(=O)(=O)Nc2ccc(C(=O)O)cc2)cc1[N+](=O)[O-] [CBK034055] | 108.451
24 | c1ccc2c(c1)OCC(COc1ccnc(N3CCCN(CCN4CCOCC4)CC3)n1)O2 (centres unmarked) [CBK083976] | 73.3508
25 | Cc1cc(C2CCCCCN2Cc2cc(Cl)ccc2O)on1 (centres unmarked) [CBK281948] | 107.798

Row | Compound | % of control remaining
26 | O=C1Nc2c(cnn2-c2ccc(F)cc2)C2=NCCN12 [CBK284351] | 86.6097
27 | Cc1cnc(CNC(=O)N(CCC#N)C2CCCCC2)cn1 [CBK156352] | 105.345
28 | CC(=O)Nc1ccc(CNc2ccc(Cl)cc2)cc1 [CBK012799] | 40.9462
29 | Cc1cc2nnc(SCC(=O)Nc3ccc4c(c3)OCO4)n2c2ccccc12 [CBK265926] | 75.8014
30 | COc1ccc(C(=O)Nc2ccc(CC(=O)O)cc2)cc1 [CBK269736] | 68.0773
31 | Nc1cc2ccccc2c(-c2ccncc2)n1 [CBK085708] | 99.5002
32 | Oc1c(CN2CCN(Cc3ccc4cccnc4c3O)CC2)ccc2cccnc12 [CBK261994] | 86.04
33 | Cc1ccc2c(CC(=O)N(C)CCN(C)C)c(C)[nH]c2c1C [CBK282157] | 117.266
34 | COc1cccc(/C=C2\SC(=S)N(CC(=O)NNC(=O)c3ccccc3O)C2=O)c1 [CBK262202] | 97.467
35 | O=C(N/N=C/c1ccc(O)cc1)c1c[nH]c2ccccc12 [CBK262193] | 93.8699
36 | Nc1nc2ccccc2n1/N=C/c1ccc([N+](=O)[O-])cc1 [CBK262239] | 105.605
37 | O=C(O)c1cccc(NC(=S)NC(=O)c2ccc(-c3ccc(Br)cc3)o2)c1 [CBK265014] | 85.2909
38 | NC(=O)C1CCN(C(=O)Cc2csc(COc3ccc(Cl)cc3)n2)CC1 [CBK304519] | 73.0106
39 | Cc1csc(Sc2cc(N3CCCC3)ncn2)n1 [CBK093745] | 96.5518
40 | CC(=O)c1cccc(NC(=O)Cn2nc(C)ccc2=O)c1 [CBK304653] | 44.4709
41 | Cc1cc(C(=O)NC(Cn2ccnc2)c2ccccc2)cc(=O)[nH]1 (centres unmarked) [CBK306818] | 70.3107
42 | O=[N+]([O-])c1ccccc1S(=O)(=O)N1CCN(c2ccnc3cc(Cl)ccc23)CC1 [CBK267271] | 90.6782
43 | COc1ccccc1NC(=O)N1CCC2(CC1)NC(=O)Cc1cc3ccccc3cc12 [CBK047284] | 88.1687
44 | CC(C)(Oc1ccc(Cl)cc1)C(=O)NCCc1ccc(S(N)(=O)=O)cc1 [CBK265628] | 102.631
45 | O=C(NCCc1c[nH]c2ccccc12)C(=O)Nc1ccncc1 [CBK287754] | 100.561
46 | Cc1nn(C)c(C)c1CCC(=O)OCc1cc(=O)n2ccccc2n1 [CBK305690] | 43.2069
47 | CN1CCN(S(=O)(=O)c2ccc3c(c2)oc(=O)c2cc(S(=O)(=O)N4CCN(C)CC4)ccc23)CC1 [CBK267206] | 98.4493
48 | Cc1cccc(OC(C)C(=O)Nc2ccccc2C(=O)N2CCCCC2)c1 (centres unmarked) [CBK269960] | 98.4238
49 | CC1CN(CCOc2ccccc2C=O)CC(C)O1 (centres unmarked) [CBK269687C] | 87.84
50 | O=C(CCNS(=O)(=O)c1ccc(Cl)cc1)N1CCN(Cc2ccccc2)CC1 [CBK269405] | 76.2203
